Measurements as given in publication PMC4336329 (PLoS ONE, 2015).
Among all 310,000 compounds or so, about 14,000 (4.5%) showed an effect of 50% or more. Effects have a minus sign here. This is one part of the list.

Target: human ether-à-go-go-related gene (hERG) potassium channel (human, UniProt Q12809)
Experiment: primary screen, population patch clamp on CHO cells stably expressing hERG
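Also: peak tail current of the secondary pulse compared with the same well before compound.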

human ether-à-go-go-related gene (hERG) potassium channel, sequence (Q12809 whole entry, looked up): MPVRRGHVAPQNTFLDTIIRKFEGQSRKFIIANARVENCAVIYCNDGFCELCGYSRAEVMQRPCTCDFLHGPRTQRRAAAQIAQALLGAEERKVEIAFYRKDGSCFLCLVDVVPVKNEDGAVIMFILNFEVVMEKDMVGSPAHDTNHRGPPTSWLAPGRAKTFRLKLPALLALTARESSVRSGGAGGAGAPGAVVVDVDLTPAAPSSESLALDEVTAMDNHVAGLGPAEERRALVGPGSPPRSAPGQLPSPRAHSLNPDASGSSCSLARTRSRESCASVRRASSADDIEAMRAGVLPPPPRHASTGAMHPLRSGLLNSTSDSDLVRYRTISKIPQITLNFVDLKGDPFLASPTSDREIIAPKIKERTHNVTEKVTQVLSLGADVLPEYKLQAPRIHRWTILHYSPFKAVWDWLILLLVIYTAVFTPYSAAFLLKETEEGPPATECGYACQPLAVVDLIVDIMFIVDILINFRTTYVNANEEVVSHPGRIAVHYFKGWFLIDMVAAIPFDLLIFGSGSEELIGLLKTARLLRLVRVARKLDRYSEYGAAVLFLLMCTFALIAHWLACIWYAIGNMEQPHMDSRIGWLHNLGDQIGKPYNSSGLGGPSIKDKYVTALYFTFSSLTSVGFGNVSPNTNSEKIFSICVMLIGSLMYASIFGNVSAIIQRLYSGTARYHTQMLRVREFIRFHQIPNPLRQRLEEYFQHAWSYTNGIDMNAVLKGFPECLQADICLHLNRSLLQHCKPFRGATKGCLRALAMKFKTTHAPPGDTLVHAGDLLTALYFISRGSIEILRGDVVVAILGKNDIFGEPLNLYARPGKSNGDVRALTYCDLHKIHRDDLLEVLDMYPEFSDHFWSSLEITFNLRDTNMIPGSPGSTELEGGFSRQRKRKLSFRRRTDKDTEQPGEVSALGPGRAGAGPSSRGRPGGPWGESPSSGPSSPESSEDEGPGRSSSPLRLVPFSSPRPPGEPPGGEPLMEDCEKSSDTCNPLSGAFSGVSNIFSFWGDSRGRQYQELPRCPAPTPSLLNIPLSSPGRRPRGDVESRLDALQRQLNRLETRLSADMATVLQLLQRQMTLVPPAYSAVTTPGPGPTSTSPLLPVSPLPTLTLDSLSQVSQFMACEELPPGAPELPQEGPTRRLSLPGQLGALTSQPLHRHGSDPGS

| Structure (SMILES) | hERG current change (%, negative = inhibition) at 10uM [%] |
| --- | --- |
| Cc1ccc2nc(C3CCCCC3)[nH]c2c1 | -2.01 |
| O=C(O)c1ccccc1C(=O)NCCCCCCNC(=O)c1ccccc1C(=O)O | 7.63 |
| NC(=O)c1ccsc1NC(=O)COC(=O)c1ccc(Cl)nc1 | 5.07 |
| CCN(CC)S(=O)(=O)c1cc(NC(=O)CSc2nccn2C)ccc1C | -1.59 |
| CN1CCC(OC(=O)COc2ccc(Br)cc2)CC1.Cl | -30.2 |
| COc1ccc(NC(=O)C23CCC(C)(C(=O)O2)C3(C)C)cc1 (stereo not drawn) | 3.14 |
| CCOC(=O)CCc1c(C)c2ccc(OCc3nn[nH]n3)cc2oc1=O | 20 |
| O=C(Nc1ccc(Cl)cc1)NC1CCCCC1 | 6.51 |
| COc1ccc(N2CCN(C(=O)CN3CCN(c4nc(-c5ccc(F)cc5)cs4)CC3)CC2)cc1 | -1.23 |
| COc1ccc2oc(=O)cc(CN3CCN(Cc4ccc(OC)c(OC)c4OC)CC3)c2c1 | -39.7 |
| O=C(c1ccc(S(=O)(=O)N2CCOCC2)cc1)N1CCc2ccccc21 | 26.2 |
| COc1ccccc1NC(=O)C(=O)NCCCN1CCCC1=O | -0.852 |
| Cc1cc(NCc2ccccn2)nc2ccccc12 | -15.4 |
| COc1ccc(C2C(C#N)=C(N)Oc3c2oc(CO)cc3=O)c(OC)c1OC (stereo not drawn) | 6.35 |
| O=C(CSc1nnc(NC(=O)C2CC2)s1)Nc1ccc(F)cc1F | -19.9 |
| O=S(=O)(Nc1ccncc1)c1cc(Cl)c(Cl)cc1Cl | 0.0869 |
| CCN1CCN(C(c2cccs2)C(C)NC(=O)NC2CCCCC2)CC1 (stereo not drawn) | -45.5 |
| COC(=O)[C@H]1CCCN1C(=O)Nc1cccc(Oc2c(F)c(F)c(F)c(F)c2F)c1 | -48 |
| CC(=O)Nc1ccc(Oc2cnc3ccccc3n2)cc1 | -9.21 |

| Structure (SMILES) | hERG current change (%, negative = inhibition) at 10uM [%] |
| --- | --- |
| Nc1nc(Nc2ccccc2)nc(C(F)(F)F)n1 | 2.08 |
| CC1(C)CC(=O)c2cnc(NC(=O)C3CCCC3)nc2C1 | -12.6 |
| CC(C)(Oc1ccc(Cl)cc1)C(=O)OCC(=O)NCCc1ccccc1 | 5.82 |
| CC(C)(C)C(=O)Nc1ccccc1C(=O)NCc1ccco1 | -16.7 |
| CC1(C)CC2CN(C(=O)Cc3ccccc3)C(C)(C2)C1 (stereo not drawn) | 0.0688 |
| Cc1ccc(S(=O)(=O)N(CC(=O)NC2CC2)c2ccc(C)c(Cl)c2)cc1 | 5.27 |
| C=CCN(CC=C)C(=O)Nc1cc(Cl)ccc1OC | -8.71 |
| CCN1CCC[C@H]1CNC(=O)c1c(O)c(Cl)cc(Cl)c1OC.O=C(O)C(O)C(O)C(=O)O | -13.8 |
| COc1cccc(/C=N/NC(=O)CCn2nnc3ccccc32)c1 | -8.76 |
| CC(=O)c1cccc(NC(=O)c2ccc3ccccc3c2)c1 | 6.07 |
| CCOc1cc(CNCCCN2CCOCC2)cc(Cl)c1OCC(=O)NC(C)(C)C.Cl | 5.38 |
| COC(=O)c1cn(C)c2ccc(S(=O)(=O)N3CCOCC3)cc2c1=O | 13 |
| CCCOc1ccc(N2C(=O)CC(N(CCC)C(=O)CCC(=O)O)C2=O)cc1 (stereo not drawn) | 15.1 |
| COP(=O)(OC)C1(Nc2ccc(C)cc2)CCCCC1 | -21.4 |
| Fc1ccc(CN2CCN(c3ncccn3)CC2)cc1 | -3.32 |
| CC1(C2CC2)NC(=O)NC1=O (stereo not drawn) | -10.3 |
| CCCCc1ccc(NC(=O)COc2ccc(C(=O)Nc3ccccc3C)cc2)cc1 | 11.6 |
| CC(=O)C1=C(c2ccc(Br)cc2)C(=O)c2ccccc2C1=O | -6.47 |
| COc1ccc(CCNC(=O)c2cccc(S(=O)(=O)N3CCCC3)c2)cc1OC | -5.03 |

| Structure (SMILES) | hERG current change (%, negative = inhibition) at 10uM [%] |
| --- | --- |
| O=C(Cn1nc(CNc2ccc(Cl)cc2)[n+]2c1CCCCC2)c1ccc(Br)cc1.[Br-] | -61.6 |
| C/C(N)=C(/C#N)C(=O)CSc1nc2ccccc2c(=O)n1-c1ccc(C)cc1 | 2.95 |
| CCN(c1ccccc1)S(=O)(=O)c1ccc(Cl)c(NC(=O)COC(=O)c2ccc[nH]c2=O)c1 | 3.13 |
| CCOC(=O)c1c(C)c(C)n(Cc2cccc(OC)c2OC)c1C | -0.614 |
| O=C(OCC(=O)N1CCCC1)c1ccccc1C(=O)c1ccccc1 | 1.74 |
| O=C(/C=C/c1ccco1)Nc1nc(-c2ccc(F)c(F)c2)cs1 | 7.43 |
| O=C(c1cccs1)N1CCN(S(=O)(=O)c2ccccc2)CC1 | -6.98 |
| Cc1ccc(N2CCN(C(=O)c3cccc([N+](=O)[O-])c3)CC2)cc1Cl | -19.1 |
| COc1ccc(NC(=O)c2[nH]c(C)c(C(C)=O)c2C)cc1Cl | -3.63 |
| CCCC(=O)Nc1cc(-c2nnc(OC)c3ccccc23)ccc1N1CCCCC1 | -36.3 |
| COC(=O)CCN1CCc2cc(N=Nc3ccc([N+](=O)[O-])cc3)ccc21 | 18 |
| CCOC(=O)c1cc(C)sc1NC(=O)c1ccc(Cl)s1 | -13.6 |
| O=C1NC(=S)N(C(=O)c2ccc(F)cc2)/C1=C/c1ccccc1 | -2.91 |
| CCCNc1nc(OC(C(F)(F)F)C(F)(F)F)nc(OC(C(F)(F)F)C(F)(F)F)n1 | -0.729 |
| COCCCNC(=O)CSc1nc2cc3c(cc2c(=O)n1CCCC(=O)NCc1ccc(OC)cc1)OCO3 | 12.6 |
| Cc1noc(C)c1CSc1nnc2n(-c3ccccc3)c(=O)c3ccccc3n12 | -8.97 |
| CN1CCN(c2ccc(CNS(=O)(=O)c3ccc(Cl)cc3)cc2)CC1 | 5.81 |
| COC(=O)c1ccc2c(c1)N(Cc1nc(-c3ccc(Cl)cc3)oc1C)C(=O)C1CCCN21 (stereo not drawn) | -3.55 |
| Cc1cc(Oc2ccc(C(F)(F)F)cc2[N+](=O)[O-])c2c3c(c(=O)oc2c1)CCC3 | 19.5 |
